Laboratory results taken from the supplement of paper PMC9588766.
Structures can show the parent of a compound that is named as a salt. The full ranking holds about 1,900 compounds; the median of “cell viability of compound + 1 nM pemigatinib relative to pemigatinib-only (DMSO) wells” is about 0.95, and the lowest 2% start at about 0.22. Some of the results follow.

Each compound was assayed on PDC-DUC18828 (assay: cell viability of compound + 1 nM pemigatinib relative to pemigatinib-only (DMSO) wells (fraction); PDC-DUC18828 is a patient-derived cholangiocarcinoma cell line; higher = less growth inhibition). Settings: first compound 1 µM; pemigatinib concentration 1 nM; 72 h.
Protocol: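 Selleck Bioactive library screen in the patient-derived FGFR2 fusion-positive ICC cell line PDC-DUC18828 (500 cells/well). Each compound was tested at 1 uM with 1 nM pemigatinib, in triplicate, for 72 h. Viability was read by CellTiter-Glo and normalised to plate DMSO controls. Value is the paper's averaged normalised viability.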

Compound	cell viability
O=C(NOC[C@H](O)CO)c1ccc(F)c(F)c1Nc1ccc(I)cc1F + CCN1C(=O)N(c2c(F)c(OC)cc(OC)c2F)Cc2cnc3[nH]c(CN4CCOCC4)cc3c21 [pemigatinib]	0.649
CC(C)c1cc(-c2ccc(F)c3ccccc23)nc(N)n1 + CCN1C(=O)N(c2c(F)c(OC)cc(OC)c2F)Cc2cnc3[nH]c(CN4CCOCC4)cc3c21 [pemigatinib]	0.951
O=C1CC2(CCCC2)CC(=O)N1CCCCN1CCN(c2ncccn2)CC1 [Buspirone HCl] + CCN1C(=O)N(c2c(F)c(OC)cc(OC)c2F)Cc2cnc3[nH]c(CN4CCOCC4)cc3c21 [pemigatinib]	1.01
CC[C@H]1OC(=O)[C@H](C)[C@@H](O[C@H]2C[C@@](C)(OC)[C@@H](O)[C@H](C)O2)[C@H](C)[C@@H](O[C@@H]2O[C@H](C)C[C@H](N(C)C)[C@H]2O)[C@](C)(O)C[C@@H](C)[C@@H]2N[C@@H](COCCOC)O[C@H]([C@H]2C)[C@]1(C)O [Dirithromycin] + CCN1C(=O)N(c2c(F)c(OC)cc(OC)c2F)Cc2cnc3[nH]c(CN4CCOCC4)cc3c21 [pemigatinib]	0.967
COc1ccc(S(=O)(=O)N(C(C)=O)c2ccccc2/C=C/c2cc[n+]([O-])cc2)cc1 + CCN1C(=O)N(c2c(F)c(OC)cc(OC)c2F)Cc2cnc3[nH]c(CN4CCOCC4)cc3c21 [pemigatinib]	0.503
Cc1c(F)cc(C(=O)NC2CC2)cc1-c1ccc(C(=O)NCC(C)(C)C)cn1 + CCN1C(=O)N(c2c(F)c(OC)cc(OC)c2F)Cc2cnc3[nH]c(CN4CCOCC4)cc3c21 [pemigatinib]	0.989
CC(=O)Nc1ncc([N+](=O)[O-])s1 [Nithiamide] + CCN1C(=O)N(c2c(F)c(OC)cc(OC)c2F)Cc2cnc3[nH]c(CN4CCOCC4)cc3c21 [pemigatinib]	0.983
CCCCCCCCCCCCCCCC(=O)O[C@@H]1[C@@H](O)[C@@H](O)[C@@H]([C@H](NC(=O)[C@@H]2C[C@@H](CCC)CN2C)[C@H](C)Cl)O[C@@H]1SC [Clindamycin palmitate HCl] + CCN1C(=O)N(c2c(F)c(OC)cc(OC)c2F)Cc2cnc3[nH]c(CN4CCOCC4)cc3c21 [pemigatinib]	1.01
CNc1cccc(CCOc2ccc3c(c2)CN(CC(F)(F)F)C(=O)[C@H](CC(=O)O)C3)n1 + CCN1C(=O)N(c2c(F)c(OC)cc(OC)c2F)Cc2cnc3[nH]c(CN4CCOCC4)cc3c21 [pemigatinib]	0.858
O=C(/C=C\n1cnc(-c2cc(C(F)(F)F)cc(C(F)(F)F)c2)n1)NNc1ccccn1 [Verdinexor (KPT-335)] + CCN1C(=O)N(c2c(F)c(OC)cc(OC)c2F)Cc2cnc3[nH]c(CN4CCOCC4)cc3c21 [pemigatinib]	0.417
CC1Cc2ccccc2N1NC(=O)c1ccc(Cl)c(S(N)(=O)=O)c1 (configuration not stated) [Indapamide] + CCN1C(=O)N(c2c(F)c(OC)cc(OC)c2F)Cc2cnc3[nH]c(CN4CCOCC4)cc3c21 [pemigatinib]	1.03
CCC(=O)c1c(O)cc(O)cc1O [Flopropione] + CCN1C(=O)N(c2c(F)c(OC)cc(OC)c2F)Cc2cnc3[nH]c(CN4CCOCC4)cc3c21 [pemigatinib]	0.953
C=CC(=O)Nc1ccc2ncnc(Nc3cccc(Br)c3)c2c1 + CCN1C(=O)N(c2c(F)c(OC)cc(OC)c2F)Cc2cnc3[nH]c(CN4CCOCC4)cc3c21 [pemigatinib]	0.589
CN1CCN(CCOc2cc(OC3CCOCC3)c3c(Nc4c(Cl)ccc5c4OCO5)ncnc3c2)CC1 [Saracatinib (AZD0530)] + CCN1C(=O)N(c2c(F)c(OC)cc(OC)c2F)Cc2cnc3[nH]c(CN4CCOCC4)cc3c21 [pemigatinib]	0.696
CCOCC(O)COc1ccc(NC(=O)CC[S+](C)C)cc1 (configuration not stated) [Suplatast Tosylate] + CCN1C(=O)N(c2c(F)c(OC)cc(OC)c2F)Cc2cnc3[nH]c(CN4CCOCC4)cc3c21 [pemigatinib]	1.06
FC(F)c1nc2ccccc2n1-c1nc(N2CCOCC2)nc(N2CCOCC2)n1 + CCN1C(=O)N(c2c(F)c(OC)cc(OC)c2F)Cc2cnc3[nH]c(CN4CCOCC4)cc3c21 [pemigatinib]	1.03
Cc1nnc(NS(=O)(=O)c2ccc(N)cc2)s1 [Sulfamethizole] + CCN1C(=O)N(c2c(F)c(OC)cc(OC)c2F)Cc2cnc3[nH]c(CN4CCOCC4)cc3c21 [pemigatinib]	0.952
COc1ccccc1S(=O)(=O)Nc1ccc2c(c1)CN(C)C(=O)N2 + CCN1C(=O)N(c2c(F)c(OC)cc(OC)c2F)Cc2cnc3[nH]c(CN4CCOCC4)cc3c21 [pemigatinib]	0.935
CC1(C)O[C@@H]2C[C@H]3[C@@H]4CCC5=CC(=O)C=C[C@]5(C)[C@@]4(F)[C@@H](O)C[C@]3(C)[C@]2(C(=O)CO)O1 [Triamcinolone Acetonide] + CCN1C(=O)N(c2c(F)c(OC)cc(OC)c2F)Cc2cnc3[nH]c(CN4CCOCC4)cc3c21 [pemigatinib]	0.911

Compound	cell viability
O=C(O)CCCc1ccccc1 [Sodium Phenylbutyrate] + CCN1C(=O)N(c2c(F)c(OC)cc(OC)c2F)Cc2cnc3[nH]c(CN4CCOCC4)cc3c21 [pemigatinib]	1.06
Cc1cnc(NC(=O)C2=C(O)c3ccccc3S(=O)(=O)N2C)s1 [Meloxicam] + CCN1C(=O)N(c2c(F)c(OC)cc(OC)c2F)Cc2cnc3[nH]c(CN4CCOCC4)cc3c21 [pemigatinib]	1
CC(C)Oc1ccc(C(=O)N[C@H](CNC(=O)CN(C)C)Cc2ccc(-c3cn4cccc([C@H](C)O)c4n3)cc2)cc1Cl + CCN1C(=O)N(c2c(F)c(OC)cc(OC)c2F)Cc2cnc3[nH]c(CN4CCOCC4)cc3c21 [pemigatinib]	0.341
C[C@@H]1C[C@H]2[C@@H]3CCC4=CC(=O)C=C[C@]4(C)[C@@]3(F)[C@@H](O)C[C@]2(C)[C@@]1(O)C(=O)CO [Dexamethasone (DHAP)] + CCN1C(=O)N(c2c(F)c(OC)cc(OC)c2F)Cc2cnc3[nH]c(CN4CCOCC4)cc3c21 [pemigatinib]	0.904
OC1(c2ccc(Cl)c(C(F)(F)F)c2)CCN(CCCC(c2ccc(F)cc2)c2ccc(F)cc2)CC1 [Penfluridol] + CCN1C(=O)N(c2c(F)c(OC)cc(OC)c2F)Cc2cnc3[nH]c(CN4CCOCC4)cc3c21 [pemigatinib]	0.861
CCCc1nc(C)c2c(=O)nc(-c3cc(S(=O)(=O)N4CCN(CC)CC4)ccc3OCC)[nH]n12 [Vardenafil HCl Trihydrate] + CCN1C(=O)N(c2c(F)c(OC)cc(OC)c2F)Cc2cnc3[nH]c(CN4CCOCC4)cc3c21 [pemigatinib]	0.938
CNC(=O)c1cc(COc2nnc(Nc3ccc(Cl)cc3)c3ccoc23)ccn1 [Telatinib] + CCN1C(=O)N(c2c(F)c(OC)cc(OC)c2F)Cc2cnc3[nH]c(CN4CCOCC4)cc3c21 [pemigatinib]	0.98
COc1cc2nccc(Oc3ccc(NC(=O)C4(C(=O)Nc5ccc(F)cc5)CC4)cc3)c2cc1OC + CCN1C(=O)N(c2c(F)c(OC)cc(OC)c2F)Cc2cnc3[nH]c(CN4CCOCC4)cc3c21 [pemigatinib]	0.908
O=C(O)/C=C/c1ccc(Cn2ccnc2)cc1 [Ozagrel HCl] + CCN1C(=O)N(c2c(F)c(OC)cc(OC)c2F)Cc2cnc3[nH]c(CN4CCOCC4)cc3c21 [pemigatinib]	1.03
O=C(O)/C=C/c1ccc(Cn2ccnc2)cc1 [Ozagrel] + CCN1C(=O)N(c2c(F)c(OC)cc(OC)c2F)Cc2cnc3[nH]c(CN4CCOCC4)cc3c21 [pemigatinib]	0.913
Cc1cc([C@@H](C)Nc2ccccc2C(=O)O)c2nc(N3CCOCC3)cc(=O)n2c1 + CCN1C(=O)N(c2c(F)c(OC)cc(OC)c2F)Cc2cnc3[nH]c(CN4CCOCC4)cc3c21 [pemigatinib]	0.874
COCCOC(=O)C1=C(C)NC(C)=C(C(=O)OC/C=C/c2ccccc2)C1c1cccc([N+](=O)[O-])c1 (configuration not stated) [Cilnidipine] + CCN1C(=O)N(c2c(F)c(OC)cc(OC)c2F)Cc2cnc3[nH]c(CN4CCOCC4)cc3c21 [pemigatinib]	1.01
CCOc1nc2cccc(C(=O)O)c2n1Cc1ccc(-c2ccccc2-c2noc(=O)[nH]2)cc1 [Azilsartan] + CCN1C(=O)N(c2c(F)c(OC)cc(OC)c2F)Cc2cnc3[nH]c(CN4CCOCC4)cc3c21 [pemigatinib]	0.978
O=c1c(-c2ccc(O)cc2)coc2c([C@@H]3O[C@H](CO)[C@@H](O)[C@H](O)[C@H]3O)c(O)ccc12 [Puerarin] + CCN1C(=O)N(c2c(F)c(OC)cc(OC)c2F)Cc2cnc3[nH]c(CN4CCOCC4)cc3c21 [pemigatinib]	1.01
Cc1cc(C)cc(C(=O)NOCCCCCC(=O)NO)c1 + CCN1C(=O)N(c2c(F)c(OC)cc(OC)c2F)Cc2cnc3[nH]c(CN4CCOCC4)cc3c21 [pemigatinib]	0.457
COc1cc(O)c(CC=C(C)C)c(O)c1C(=O)/C=C/c1ccc(O)cc1 [Xanthohumol] + CCN1C(=O)N(c2c(F)c(OC)cc(OC)c2F)Cc2cnc3[nH]c(CN4CCOCC4)cc3c21 [pemigatinib]	0.968
Cc1cc(/N=N/c2ccc(S(=O)(=O)Nc3ccccn3)cc2)c(N)cc1O + CCN1C(=O)N(c2c(F)c(OC)cc(OC)c2F)Cc2cnc3[nH]c(CN4CCOCC4)cc3c21 [pemigatinib]	0.971
CC(C)(Cc1ccc2ccccc2c1)NC[C@@H](O)COc1cccc(Cl)c1C#N + CCN1C(=O)N(c2c(F)c(OC)cc(OC)c2F)Cc2cnc3[nH]c(CN4CCOCC4)cc3c21 [pemigatinib]	0.953
